The values below come from the supplement of paper PMC9446081.

The campaign covered roughly 39,000 compounds. About 220 (0.56%) showed activity. The list shows a part of the results.
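Note: static incubation at 37 °C against the wild-type strain, values averaged over two biological replicates.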

The experiment deals with Escherichia coli K-12 BW25113. Nature of the experiment: relative growth (OD600 normalised to plate interquartile mean) (fraction); higher = less growth inhibition, active = 0.2 or less. The settings on record: 50 µM; LB; incubation time: overnight (16-24 h).
In the case of `COc1ccc(NC(=O)N(C)C[C@@H]2Oc3ccc(NS(=O)(=O)c4c(C)noc4C)cc3C(=O)N([C@H](C)CO)C[C@@H]2C)cc1`, the relative growth was inactive: 0.992.

On to `C[C@@H]1CN([C@@H](C)CO)C(=O)Cc2cc(NS(=O)(=O)c3ccc(F)cc3)ccc2O[C@H]1CN(C)S(=O)(=O)c1cccs1`, for which the relative growth is inactive: 0.997.

As to `O=C(C[C@H]1CC[C@H]2[C@@H](COC[C@H](O)CN2C(=O)c2cnccn2)O1)N1CCN(c2ccccc2)CC1`, the relative growth was inactive: 1.01.

For the compound `C[C@H]1CN([C@@H](C)CO)C(=O)Cc2cc(NS(=O)(=O)c3ccc(Cl)cc3)ccc2O[C@H]1CN(C)Cc1ccc(-c2ccccc2)cc1`, the relative growth was inactive: 0.992.

Consider `Cn1cnc(S(=O)(=O)N[C@@H]2CC[C@H](CC(=O)N3CCN(c4ccccc4)CC3)O[C@@H]2CO)c1`, for which the relative growth was inactive: 0.974.

On to `C[C@@H]1CN([C@@H](C)CO)C(=O)c2c(c3ccccc3n2C)-c2ccccc2CO[C@H]1CN(C)Cc1ccc(C(=O)O)cc1`, for which the relative growth was inactive: 0.992.

Consider `CCN(CC)CC(=O)N1c2ccccc2CCc2ccc(NC(=O)c3cc(OC)c(OC)c(OC)c3)cc21`, for which the relative growth was inactive: 0.995.

On to `CCc1ccc(Nc2c3c(nc4ccccc24)CCC3)cc1`, for which the relative growth is inactive: 0.805.

Turning to `O=C(CN1CCOCC1)NCC[C@H]1CC[C@H](NC(=O)Nc2ccccc2)[C@@H](CO)O1`, the relative growth was inactive: 1.

Regarding `C[C@@H]1CCCCO[C@H](CN(C)C(=O)CCC(F)(F)F)[C@@H](C)CN([C@@H](C)CO)C(=O)c2cc(NC(=O)Cc3ccccc3)ccc2O1`, the relative growth was inactive: 1.

As to `COCC(=O)N1C[C@H](C)[C@H](OC)CN(C)C(=O)c2ccc(NC(=O)c3cc(C)on3)cc2OC[C@H]1C`, the relative growth is inactive: 1.

For `NC(=O)C[C@H]1Sc2ccccc2NC1=O`, the relative growth is inactive: 1.06.

On to `CN1CCN(C(=O)C[C@@H]2CC[C@@H](NC(=O)c3ccc4c(c3)OCO4)[C@H](CO)O2)CC1`, for which the relative growth is inactive: 1.

`N[C@@H](CCC(=O)N[C@@H](CS[N+][O-])C(=O)NCC(=O)O)C(=O)O`: the relative growth is inactive: 1.02.

For `O=S1(=O)CC[C@H](N2CCOCC2)C1`, the relative growth was inactive: 0.966.

With `COC(=O)[C@@H](N)CS`, the relative growth was inactive: 1.

Regarding `O=C(C[C@@H]1CC[C@H](NC(=O)CN2CCOCC2)[C@@H](CO)O1)NCCc1ccncc1`, the relative growth was inactive: 0.996.

For the compound `Cc1noc(C)c1NC(=O)N(C)C[C@H]1OCCCC[C@@H](C)Oc2ccc(NC(=O)Nc3ccc4c(c3)OCO4)cc2C(=O)N([C@H](C)CO)C[C@@H]1C`, the relative growth is inactive: 1.03.

In the case of `COCCNC(=O)CCC(=O)NN=c1nc2ccccc2c2nc(C)[nH]n12`, the relative growth is inactive: 0.987.

For `NCc1nnnn1-c1ccc(F)cc1`, the relative growth was inactive: 1.

Regarding `C[C@@H]1CN([C@H](C)CO)C(=O)c2cc(NC(=O)CCCN(C)C)ccc2O[C@@H](C)CCCCO[C@H]1CN(C)CC1CCCCC1`, the relative growth is inactive: 1.01.

As to `C[C@@H]1CN([C@@H](C)CO)C(=O)c2cc(NC(=O)C3CCCCC3)ccc2O[C@@H](C)CCCCO[C@@H]1CN(C)C(=O)Cc1ccccc1`, the relative growth is inactive: 1.01.

Regarding `CN(C)CCCNC(=O)C[C@@H]1CC[C@H](NS(=O)(=O)c2ccccc2)[C@H](CO)O1`, the relative growth was inactive: 1.03.

Consider `Cc1ccc(S(=O)(=O)Nc2ccc3c(c2)C(=O)N([C@H](C)CO)C[C@H](C)[C@H](CN(C)Cc2ccc4c(c2)OCO4)OCCCC[C@@H](C)O3)cc1`, for which the relative growth is inactive: 0.987.

For `COc1ccccc1CNS(C)(=O)=O`, the relative growth is inactive: 1.

`C[C@@H]1[C@@H](c2ccccc2)OC(=O)[C@@H]2[C@@H]3C=C[C@]4(O3)[C@H](C(=O)N(Cc3ccccc3)C/C=C\CCC(=O)N1C)N([C@@H](C)CO)C(=O)[C@@H]24`: the relative growth was inactive: 0.998.

Take `CC(C)NC(=O)N(C)C[C@H]1Oc2ccc(NC(=O)NC3CCCCC3)cc2CC(=O)N([C@H](C)CO)C[C@@H]1C`: the relative growth is inactive: 0.99.

On to `CC(C)N1CCNCC1`, for which the relative growth is inactive: 1.05.

For the compound `C[C@@H]1CN([C@H](C)CO)C(=O)c2cc(NS(=O)(=O)c3cccs3)ccc2O[C@@H](C)CCCCO[C@@H]1CN(C)C(=O)C1CCCCC1`, the relative growth was inactive: 0.985.

Consider `COc1ccc(NC(=O)N(C)C[C@@H]2Oc3ccc(NC(=O)CCCN(C)C)cc3C(=O)N([C@@H](C)CO)C[C@@H]2C)cc1`, for which the relative growth was inactive: 1.03.

As to `COc1ccccc1CNC(=O)C[C@H]1C[C@H]2c3cc(NC(=O)Cc4ccncc4)ccc3O[C@H]2[C@@H](CO)O1`, the relative growth is inactive: 1.01.

With `Nc1ccc(-n2cccc2)cc1Cl`, the relative growth was inactive: 0.966.

As to `C[C@@H]1CN([C@@H](C)CO)C(=O)Cc2cc(NS(=O)(=O)c3ccccc3)ccc2O[C@@H]1CN(C)S(=O)(=O)c1cn(C)cn1`, the relative growth was inactive: 0.978.

`C[C@H](CO)N1C[C@H](C)[C@@H](CN(C)S(=O)(=O)c2ccccc2F)Oc2cc(C#Cc3cccc(F)c3)ccc2S1(=O)=O`: the relative growth is inactive: 1.01.

For the compound `Cc1ccc(S(=O)(=O)N(C)C[C@@H]2OCCCC[C@@H](C)Oc3ccc(NC(=O)Cc4ccccc4)cc3C(=O)N([C@@H](C)CO)C[C@@H]2C)cc1`, the relative growth is inactive: 1.01.

Consider `C[C@@H]1CN([C@@H](C)CO)S(=O)(=O)c2ccc(-c3ccc(C(=O)N(C)C)cc3)cc2O[C@H]1CN(C)C(=O)C1CCOCC1`, for which the relative growth is inactive: 1.03.

Take `CCS(=O)(=O)N1CC[C@]2(CN(c3cnn(C)c3)C(=O)CN2C(C)=O)C1`: the relative growth was inactive: 1.03.

For the compound `C[C@@H]1CCCCO[C@@H](CN(C)S(=O)(=O)c2ccc(Cl)cc2)[C@H](C)CN([C@@H](C)CO)C(=O)c2cc(NC(=O)Cc3ccccc3)ccc2O1`, the relative growth was inactive: 1.03.

In the case of `C[C@@H]1CN([C@H](C)CO)C(=O)c2c(c3ccccc3n2C)-c2ccccc2CO[C@@H]1CN(C)S(=O)(=O)c1ccc(Cl)cc1`, the relative growth is inactive: 1.06.

Regarding `COC(=O)C1=CO[C@@H](O[C@@H]2O[C@H](CO)[C@@H](O)[C@H](O)[C@H]2O)[C@@H]2[C@@](C)(O)[C@@H](OC(=O)/C=C/c3ccc(O)cc3)C[C@]12O`, the relative growth is inactive: 1.

Turning to `O=C(C[C@H]1C[C@H]2c3cc(NC(=O)c4cccnc4)ccc3O[C@H]2[C@H](CO)O1)NCc1cc(F)ccc1F`, the relative growth was inactive: 0.979.

Take `CO[C@H]1CN(C)C(=O)c2cc(NC(=O)NC3CCCCC3)ccc2OC[C@H](C)N(CCc2ccccc2)C[C@H]1C`: the relative growth is inactive: 0.96.
